Data as given in PubChem BioAssay AID686978 (National Center for Advancing Translational Sciences (NCATS), 2013).
Out of some 420,000 compounds screened, about 64,000 (15%) were called active. The shares of active, inactive and inconclusive entries below differ from those in the screen. Calls come from the whole dose curve; as a rule, active = well fitted inhibition curve with a large enough effect; inconclusive = small, poorly fitted or top-dose-only effect; inactive = flat fitted curve, though single readings scatter. Potencies of inconclusive entries are left out as doubtful fits.

Assay: qHTS for Inhibitors of human tyrosyl-DNA phosphodiesterase 1 (TDP1): qHTS in cells in absence of CPT; note: nearly all actives have a fitted effect of over 55% in size
Settings: DT40 Tdp1-/- hTDP1 cells, no CPT, ATP luminescence, 48 h; activity change, negative = growth inhibition: at 46.2 µM (top of the series)
How it was run: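 Chicken DT40 Tdp1-/- cells stably complemented with human TDP1 were seeded at 400 cells/well with DMSO in place of 20 nM camptothecin. After compound pinning, cells grew at least 48 hr at 37 °C; viability read by CellTiter-Glo luminescence.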
% is set by controls: 0 for no effect and ±100 for the full control effect; potency is the fitted concentration of half-maximal effect; tags give direction and shape of the fitted curve.

Compound | Potency | activity change, negative = growth inhibition
COc1ccccc1N1CCN(S(=O)(=O)c2ccc3c(c2)CCCN3C(C)=O)CC1 | inconclusive [inhibitor, single point] | 
CC1(C)CC2CC(C)(CN2c2ncnc3ccc(Br)cc23)C1 (stereo not drawn) | active: 3.26 µM | 
CC1C(=O)N(Cc2cn(Cc3ccco3)nn2)CCS(=O)(=O)N1Cc1ccc(-c2ccccc2)cc1 (stereo not drawn) | active: 18.4 µM | 
CCOCCCn1c(SCC(=O)Nc2ccc(F)cc2)nc2c(sc3ccccc32)c1=O | inactive | 
Cc1ccc(NC(=S)N2CCCC(c3ccccc3)=N2)cc1 | inactive | 
Cc1cc(CNC(=O)c2cccnc2Cl)c2ccccc2n1 | inconclusive [inhibitor, single point] | 
CCc1cccc(NC(=O)Cn2c(-c3ccc(F)cc3)cc(C(C)=O)c2C)c1 | active: 16.4 µM | 
Cc1oc2ncnc(N)c2c1C |  | inconclusive: -35.8% [inhibitor]
N#CC(C(=O)NCc1ccco1)c1nc2ccccc2nc1N1CCOCC1 (stereo not drawn) | inconclusive [inhibitor, partial curve] | 
O=C(CCN1C(=O)/C(=C\c2ccccc2Cl)SC1=S)N1CCN(c2ccccc2)CC1 | active: 10.3 µM | 
COc1ccc(C(=O)N2CCN(CCNC(=O)C(=O)Nc3ccc(Br)cc3)CC2)cc1 | inconclusive [inhibitor, single point] | 
COc1ccc(NC(=O)c2ccc(NC(=O)CN3CCN(c4ccc(O)cc4)CC3)cc2)cc1 | inconclusive [inhibitor, single point] | 
CCc1ccccc1-n1c(SCC(=O)Nc2ccc(C)cc2)nc2n[nH]c(C)c2c1=N | active: 5.17 µM | 
O=C(O)Cc1ccc(-c2ccccc2-c2ccccc2)cc1 | active: 20.6 µM | 
CC(C)(C)C(O)CN1CCCC1 (stereo not drawn) | inactive | 
Cc1ccc(NC(=O)CC2(CC(=O)O)CCCC2)c(C)c1 | inactive | 
CCOc1ccc(/C=C(\C)C(=O)c2c(C)cc(C)[nH]c2=O)cc1 | inactive | 
O=C1Nc2ccccc2C12OCC(COc1ccc(Cl)cc1)O2 (stereo not drawn) | inconclusive [inhibitor, single point] | 
Cc1cccc(C)c1OCC(=O)Nc1ccc2c(c1)OCCO2 | inconclusive [inhibitor, single point] | 
O=C(NCc1ccco1)/C(=C/c1ccc(Cl)cc1)NC(=O)c1ccco1 | inactive | 
CCOc1ccccc1CNCc1ccc(C(=O)O)cc1 | inactive | 
CCC/C(C)=N/NC(=O)c1ccccc1O |  | inconclusive: -32.9% [inhibitor]
CCCCNS(=O)(=O)c1ccc(NC(=O)c2c(-c3ccccc3)noc2C)cc1 | inconclusive [inhibitor, single point] | 
